The values that follow come from PMC4336329 (PLoS ONE, 2015).

SMILES strings stand for the structures. Among all 310,000 compounds or so, about 14,000 (4.5%) showed an effect of 50% or more. Effects have a minus sign here. This is one part of the list.
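Note: peak tail current of the secondary pulse compared with the same well before compound.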

human ether-à-go-go-related gene (hERG) potassium channel, sequence (Q12809 whole entry, looked up): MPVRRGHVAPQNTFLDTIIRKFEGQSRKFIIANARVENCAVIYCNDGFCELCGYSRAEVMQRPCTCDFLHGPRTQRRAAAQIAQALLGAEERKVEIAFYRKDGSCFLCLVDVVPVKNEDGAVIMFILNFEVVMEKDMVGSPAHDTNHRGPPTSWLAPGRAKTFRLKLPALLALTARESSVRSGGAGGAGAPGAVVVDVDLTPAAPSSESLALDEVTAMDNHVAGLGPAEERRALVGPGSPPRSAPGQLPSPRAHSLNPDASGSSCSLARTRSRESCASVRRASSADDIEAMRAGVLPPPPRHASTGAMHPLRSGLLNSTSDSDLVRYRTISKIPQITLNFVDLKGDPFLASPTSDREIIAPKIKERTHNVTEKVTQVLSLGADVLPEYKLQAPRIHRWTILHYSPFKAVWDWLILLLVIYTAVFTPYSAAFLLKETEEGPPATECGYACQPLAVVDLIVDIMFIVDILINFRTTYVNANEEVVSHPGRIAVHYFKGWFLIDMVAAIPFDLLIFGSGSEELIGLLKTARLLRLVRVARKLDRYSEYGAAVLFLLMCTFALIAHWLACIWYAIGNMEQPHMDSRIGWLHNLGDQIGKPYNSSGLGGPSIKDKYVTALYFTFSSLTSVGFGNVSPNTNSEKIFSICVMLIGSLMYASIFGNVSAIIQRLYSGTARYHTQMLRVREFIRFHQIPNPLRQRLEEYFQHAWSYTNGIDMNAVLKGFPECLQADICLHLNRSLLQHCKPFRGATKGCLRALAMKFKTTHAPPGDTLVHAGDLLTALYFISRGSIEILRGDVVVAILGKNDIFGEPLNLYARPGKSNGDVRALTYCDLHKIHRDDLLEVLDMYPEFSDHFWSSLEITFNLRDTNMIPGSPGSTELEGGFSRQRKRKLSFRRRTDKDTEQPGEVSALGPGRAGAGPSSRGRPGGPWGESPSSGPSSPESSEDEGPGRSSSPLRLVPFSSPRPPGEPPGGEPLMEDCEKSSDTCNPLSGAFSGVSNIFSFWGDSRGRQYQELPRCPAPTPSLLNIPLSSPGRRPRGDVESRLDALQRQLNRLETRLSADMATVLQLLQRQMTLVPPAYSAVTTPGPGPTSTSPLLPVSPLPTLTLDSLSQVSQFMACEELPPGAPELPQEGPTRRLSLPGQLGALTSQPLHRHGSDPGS

The experiment addresses human ether-à-go-go-related gene (hERG) potassium channel (human, UniProt Q12809). The experiment is described as follows: primary screen, population patch clamp on CHO cells stably expressing hERG.
Regarding `S=C1NC[C@H](CC2CCCCC2)N1CC1CCCCC1`, the “hERG current change (%, negative = inhibition) at 10uM” value is recorded as -8.59%.
As for `c1ccc(Cn2nnnc2CN2CCN(c3ncccn3)CC2)cc1`, the figure is -12.9%; as for `CCc1cc2c(=O)c(-c3cnn(-c4ccccc4)c3)c(C)oc2cc1OCC(=O)Nc1cccc(C)c1`, 5.08%.
As for `COc1cccc(NC(=S)N2CCc3cc(OC)c(OC)cc3C2)c1`, the figure is 1.23%; as for `CCN(CC)CCNC(=O)C1c2ccccc2Oc2ccccc21.Cl`, 6.6%; as for `CCc1cccc(NC(=S)N(CCCOC(C)C)C2CCN(C(C)=O)CC2)c1`, -6.1%.
As for `O=C(CSCc1cccc(Br)c1)NC1CC1`, the figure is -6.25%; as for `COc1ccccc1C(=O)O[C@H]1[C@H](Cc2ccccc2)NS(=O)(=O)[C@H]2C[C@@H]3C=C[C@]12O3`, 2.42%.
On to `CCN(CC)c1ccc(C(=O)OCC(=O)N(C)Cc2ccccc2)cc1`, for which the “hERG current change (%, negative = inhibition) at 10uM” value is -13.9%.
As for `Brc1ccc(C2=Nn3c(nnc3-c3n[nH]c4c3CCC4)SC2)cc1`, the figure is 4.63%.
Turning to `Cc1ccccc1NC(=O)C(C)OC(=O)CCC(=O)N(CC(C)C)c1c(N)n(CC(C)C)c(=O)[nH]c1=O` (stereo not drawn), the “hERG current change (%, negative = inhibition) at 10uM” value was -11.2%.
As for `CNS(=O)(=O)c1ccc(NS(=O)(=O)c2ccccc2F)cc1`, the figure is 21.9%; as for `O=C1CC(c2ccccc2)CC(=NCCO)/C1=C(\O)CCCN1C(=O)c2ccccc2C1=O` (stereo not drawn), -71.9%; as for `CCOC(=O)c1sc(NC(=O)C(CC)OC(=O)c2ccco2)nc1C` (stereo not drawn), -24.2%.
`CCn1c(=O)c([N+](=O)[O-])c(NCC(O)c2ccccc2)c2ccccc21` (stereo not drawn): the “hERG current change (%, negative = inhibition) at 10uM” value is given as -4.1%.
As for `Cc1ccc(NC(=O)c2cc(C)nc3ccccc23)c(C)c1`, the “hERG current change (%, negative = inhibition) at 10uM” value is -0.323%.
As to `Cc1cccc(NC(=O)c2ccc(NC(=O)c3ccccc3Br)cc2)c1`, the “hERG current change (%, negative = inhibition) at 10uM” value was 12%.
For the compound `CC1CCCC(C)N1CCNC(=O)Nc1ccc(Cl)cc1` (stereo not drawn), the “hERG current change (%, negative = inhibition) at 10uM” value is recorded as -36.8%.
For the compound `Cc1cccc(NS(=O)(=O)c2ccc(C(=O)N3CC(C)OC(C)C3)cc2)c1C` (stereo not drawn), the “hERG current change (%, negative = inhibition) at 10uM” value is listed as -1.13%.
Next, `CSc1nnc(-c2cccs2)n1C`: -4.11%; `COc1ccc(Cc2nc3ccc(C(=O)N4CCC(N(C)C)C4)cc3o2)cc1` (stereo not drawn): 11%; `CC(=O)c1ccc(OCc2cc(C(=O)N3CCC(c4ccncc4)CC3)no2)cc1`: -28%.
Next, `CCc1ccnc(NS(=O)(=O)c2ccc3c(c2)OCCO3)c1`: 3.52%; `NC(=O)NCCCC(=O)NCC(c1ccccc1Cl)c1c[nH]c2ccccc12` (stereo not drawn): 18.9%; `COc1ccc(CCC(=O)NNC(=O)Nc2ccccc2Cl)cc1`: 4.25%.
As to `Cc1cccc(OCCCc2c(C)n[nH]c2C)c1`, the “hERG current change (%, negative = inhibition) at 10uM” value is listed as 3.95%.
Next, `COc1cccc(NC(=O)Cc2cccs2)c1`: 14.4%.
Next, `Cc1cccc(CSc2nc3c(cc2C#N)CN(C)CC3)c1`: -71.2%; `O=C(O)CC1CCCC(c2ccccc2)C1=O` (stereo not drawn): -12.3%.
Consider `CC1=C(C(=O)OCCCCCl)C(c2cc3c(cc2Br)OCO3)NC(=O)N1` (stereo not drawn), for which the “hERG current change (%, negative = inhibition) at 10uM” value worked out at 36.7%.
In the case of `Cc1ccc2cc(C(c3nnnn3C3CCCC3)N(Cc3cccnc3)Cc3ccco3)c(=O)[nH]c2c1` (stereo not drawn), the “hERG current change (%, negative = inhibition) at 10uM” value is reported as -77.8%.
Next, `Cc1c(NC(=O)CN2c3cccc4cccc(c34)S2(=O)=O)c(=O)n(-c2ccccc2)n1C`: 11.6%; `CC(=O)c1ccc(NC(=O)C(C)N(C)CC(=O)Nc2ccc(N3CCOCC3)cc2)cc1` (stereo not drawn): -0.901%; `O=C(N/N=C/c1c(O)n(-c2ccccc2)c(=O)[nH]c1=O)c1ccncc1`: 16.2%.
Next, `N/C(=N\OC(=O)C(c1ccccc1)c1ccccc1)c1cccnc1`: -12.8%; `O=C(NCCN1CCOCC1)c1ccc2c(c1)N(Cc1ccccc1)C(=O)CS2`: 2.4%.
With `C[C@H]1[C@H](C)CC[C@]2(C)CC[C@]3(C)C(=CC(=O)C4[C@@]5(C)CC[C@H](O)C(C)(C)C5CC[C@]43C)[C@H]12` (stereo partly drawn), the “hERG current change (%, negative = inhibition) at 10uM” value is 25.5%.
As for `Nc1ccc(S(=O)(=O)NCC(=O)OCCOc2ccccc2)cc1[N+](=O)[O-]`, the “hERG current change (%, negative = inhibition) at 10uM” value is 3.37%.
Next, `OCC1(Cc2ccccc2F)CCCN(CCc2ccccc2)C1` (stereo not drawn): -74.8%; `CCN1C(Nc2ccccc2)=NC[C@@H]1Cc1ccccc1`: -26%; `CC1CN(Cc2ccc(Cl)cc2Cl)CC(C)O1` (stereo not drawn): 14.6%.
Take `COC(=O)CN1C(=O)[C@H]2[C@@H](c3ccc(C)o3)N3C(=O)CN(CCO)C(=O)[C@@]3(C)[C@H]2C1=O`: the “hERG current change (%, negative = inhibition) at 10uM” value is -2.13%.
